A collection of fitness landscapes (doi:10.1016/j.celrep.2020.107928)
Over roughly 81,000 sequences, “one-hybrid fitness for binding NBS DNA” has its median near -0.1; the highest 2% begin near 0.36. This is one part of the list.

B1: Caulobacter ParB omega fusion; a variant is named by its letters at X, in order, B8GW30 (parent)
chain: MESVVVGEPGMSEGRRGLGRGLSALLGEVDAAPAQAPGEQLGGSREAPIEILQRNPDQPRRTFREEDLEDLSNSIREKGVLQPILVRPSPDTAGEYQIVAGERAWRAAQRAGLKTVPIMVRELDDLAVLEIGIIENVQRADLNVLEEALSYKVLMEKFERTQENIAQTIGKSXSHVANXMRLLXLPDEVQSYLVSGELTAXHARAIAAAADPVALAKQIIEGGLSVRETEALARKAPNLSAGKSKGGRPPRVKDTDTQALESDLSSVLGLDVSIDHRGSTGTLTITYATLEQLDDLCNRLTRGI

Variants of: B1
Experiment: one-hybrid fitness for binding NBS DNA (the Noc-binding site; scaled: cognate 1, non-cognate 0); higher = stronger binding
Settings: with NBS DNA site
Method in brief: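 Pre- and post-selection plasmids were Illumina-sequenced, three replicate libraries were pooled, and any variant with under 10 reads was removed. The libraries were Caulobacter ParB with four specificity codons randomised, selected in E. coli USO through a HIS3 reporter whose site is 19 bp from the promoter. Cells grew 48 hours at 37°C on M9 without histidine, with 0.1 mM IPTG and 5 mM 3-AT. Fitness is the log change in variant-to-wild-type read ratio, rescaled against cognate and non-cognate.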

Variant	one-hybrid fitness for binding NBS DNA
NNLC	≤ 0.2
YYNV	≤ 0.2
VLNA	≤ 0.2
WGNL	≤ 0.2
WHQW	≤ 0.2
RCTT	0.518
CDNS	≤ 0.2
PMCY	≤ 0.2
LEGK	≤ 0.2
HKKC	≤ 0.2
SKHD	≤ 0.2
TLWL	≤ 0.2
SFTS	≤ 0.2
PEYD	≤ 0.2
MHMM	≤ 0.2
SDGG	≤ 0.2
KMHC	≤ 0.2
VRPY	≤ 0.2
PKFS	≤ 0.2
KNGS	≤ 0.2
YDSS	≤ 0.2

Variant	one-hybrid fitness for binding NBS DNA
RWMI	≤ 0.2
PQTT	≤ 0.2
HGNS	≤ 0.2
LIVV	≤ 0.2
NMQG	≤ 0.2
RWKA	≤ 0.2
CCRN	≤ 0.2
VVKC	≤ 0.2
ETGS	≤ 0.2
LIFY	≤ 0.2
LYQD	≤ 0.2
KIKR	0.239
IYSG	≤ 0.2
TPWG	≤ 0.2
PSNS	≤ 0.2
QVKW	≤ 0.2
EQIM	≤ 0.2
AAFW	≤ 0.2
CFMR	≤ 0.2
MLCI	≤ 0.2
LDMS	≤ 0.2

Variant	one-hybrid fitness for binding NBS DNA
TKMT	≤ 0.2
HGTF	≤ 0.2
DPVV	≤ 0.2
SGKH	≤ 0.2
SPKA	≤ 0.2
KFPA	≤ 0.2
PPAM	≤ 0.2
PIMT	≤ 0.2
KMES	≤ 0.2
AAPN	≤ 0.2
TTKR	0.372
HPVT	≤ 0.2
CMRM	≤ 0.2
PHVG	≤ 0.2
PVST	≤ 0.2
DRYD	≤ 0.2
GEEG	≤ 0.2
RWFM	≤ 0.2
QCSQ	0.271
TTAS	≤ 0.2
LLTP	≤ 0.2

Variant	one-hybrid fitness for binding NBS DNA
GYGC	≤ 0.2
YLTH	≤ 0.2
YRAE	≤ 0.2
CMMR	≤ 0.2
RIHG	≤ 0.2
HNDT	≤ 0.2
NSWA	≤ 0.2
NPPM	≤ 0.2
EDGS	≤ 0.2
DTKW	≤ 0.2
DGPR	≤ 0.2
MISW	≤ 0.2
QADS	≤ 0.2
QYRM	0.394
SCNT	≤ 0.2
RVVW	≤ 0.2
PVSE	≤ 0.2
NTLD	≤ 0.2
WCHS	≤ 0.2
LATY	≤ 0.2
PWDL	≤ 0.2
